From paper PMC4336329 (PLoS ONE, 2015)
The whole screen tested about 310,000 compounds, of which about 2,200 (0.71%) showed an effect of 50% or more. Effects have a minus sign here. The list shows a part of the results.

The molecules below were run against human ether-à-go-go-related gene (hERG) potassium channel (human, UniProt Q12809) (assay: primary screen, population patch clamp on CHO cells stably expressing hERG).
Chain of human ether-à-go-go-related gene (hERG) potassium channel (Q12809 whole entry, looked up): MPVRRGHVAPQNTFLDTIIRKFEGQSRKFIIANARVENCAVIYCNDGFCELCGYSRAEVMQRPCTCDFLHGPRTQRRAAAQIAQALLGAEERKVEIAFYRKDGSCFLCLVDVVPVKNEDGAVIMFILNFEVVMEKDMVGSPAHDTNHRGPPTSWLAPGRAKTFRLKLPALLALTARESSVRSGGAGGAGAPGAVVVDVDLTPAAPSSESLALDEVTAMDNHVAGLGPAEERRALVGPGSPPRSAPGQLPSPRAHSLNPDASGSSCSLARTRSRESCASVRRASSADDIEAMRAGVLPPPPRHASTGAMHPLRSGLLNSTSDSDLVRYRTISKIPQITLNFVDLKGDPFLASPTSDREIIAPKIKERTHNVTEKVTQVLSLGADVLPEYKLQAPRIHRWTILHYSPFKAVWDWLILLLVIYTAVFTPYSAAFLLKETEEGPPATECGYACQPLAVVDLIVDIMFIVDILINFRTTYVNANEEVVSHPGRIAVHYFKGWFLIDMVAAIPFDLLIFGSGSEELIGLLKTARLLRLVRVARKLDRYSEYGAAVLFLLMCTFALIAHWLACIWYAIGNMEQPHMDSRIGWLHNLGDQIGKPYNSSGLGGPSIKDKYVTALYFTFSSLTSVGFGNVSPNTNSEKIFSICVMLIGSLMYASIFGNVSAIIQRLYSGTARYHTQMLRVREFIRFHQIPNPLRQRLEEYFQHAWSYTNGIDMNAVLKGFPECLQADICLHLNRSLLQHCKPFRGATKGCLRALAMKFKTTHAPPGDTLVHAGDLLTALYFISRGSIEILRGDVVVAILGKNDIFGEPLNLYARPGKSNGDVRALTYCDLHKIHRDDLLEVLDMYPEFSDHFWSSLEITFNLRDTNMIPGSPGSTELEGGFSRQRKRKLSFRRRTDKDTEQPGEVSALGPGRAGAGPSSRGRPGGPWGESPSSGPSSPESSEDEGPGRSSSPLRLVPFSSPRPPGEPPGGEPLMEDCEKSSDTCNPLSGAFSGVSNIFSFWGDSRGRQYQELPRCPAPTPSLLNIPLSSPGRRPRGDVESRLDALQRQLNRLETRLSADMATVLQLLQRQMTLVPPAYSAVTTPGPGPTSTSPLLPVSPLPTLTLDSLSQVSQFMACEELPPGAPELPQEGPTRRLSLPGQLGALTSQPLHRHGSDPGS

SMILES | hERG current change (%, negative = inhibition) at 1uM
Cc1ccc(C23CC4CC(CC(C(=O)N5CCN(C)CC5)(C4)C2)C3)cc1 | -5.67%
O=C(O)c1ccc(COc2ccccc2Cl)cc1 | 14.8%
CCC(=O)Nc1ccc(C(=O)NNC(=O)c2ccc([N+](=O)[O-])cc2)cc1 | 10.4%
O=C(Nc1ccc(Cl)cn1)c1ccccc1SCc1ccccc1 | 13.3%
COc1ccc(C(=O)N(C)Cc2ccccn2)cc1OC1CCN(C(C)C)CC1 | 9.67%
CCCN1C(=O)c2cc(C(=O)Nc3ccc(OC)cc3OC)ccc2C1Nc1ccc(OC)cc1OC (stereo not shown) | 9.85%
O=C(O)CNC(=O)CCN1C(=O)c2ccccc2C1=O | -15.6%
CCCN(CCC)CCNC(=O)CN1C(=O)COc2ccc(S(=O)(=O)N3CCOCC3)cc21 | 15%
Cn1c(=O)c2c(nc(SCC(=O)NC3CCCC3)n2C)n(C)c1=O | 10.1%
O=C1NC(c2ccccc2Cl)Nc2ccccc21 (stereo not shown) | 4.54%
COc1ccccc1C1CC(c2ccc(Br)cc2)=NN1C(=O)c1cccnc1 (stereo not shown) | 2.17%
COC(=O)c1ccc(CNC(=O)C2CCC(=O)N(C3CCCCCC3)C2)cc1 (stereo not shown) | 6.11%
Cn1cnnc1SCCC(=O)Nc1ccccc1 | 5.3%
CC(C)N(Cc1ccccc1)C(=O)C1CCN(c2ncnc3c2nc2n3CCCCC2)CC1 | 13.1%
CC(C)(C)n1nnnc1C(c1ccccn1)N1CCN(C(c2ccccc2)c2ccccc2)CC1 (stereo not shown) | 17.7%
Nc1nc(SCc2ccccc2Cl)nc2nc3c(cc12)CCCC3 | -4.29%
CCOC(=O)c1cnc2c(C)c(Cl)ccc2c1NCCCN1CCOCC1 | 11.4%
Cc1ccc2[nH]c(=O)c3cc(C(=O)NCCC(C)C)sc3c2c1 | 14.6%
Cn1cnnc1SCC(=O)Nc1ccc(OCc2ccccc2)cc1 | 14.1%
Cc1cc(C(=O)Nc2ncn[nH]2)ccc1[N+](=O)[O-] | 25.4%
CCOc1ccc(NS(=O)(=O)c2ccc(C(=O)NCC(c3ccc(OC)cc3)N3CCCC3)cc2)cc1 (stereo not shown) | -6.72%
COc1ccc2c(=O)cc(C(F)(F)C(F)(F)F)oc2c1 | 14.3%

SMILES | hERG current change (%, negative = inhibition) at 1uM
Cc1cc(C)cc(NC(=O)c2ccc(NC(=O)c3ccco3)cc2)c1 | 16.9%
CCc1ccc(N(CC(=O)NCC2CCCO2)C(=O)CCC(=O)Nc2nccs2)cc1 (stereo not shown) | 11.8%
O=C(CN1C(=O)NC2(CCCC2)C1=O)N1CCN(S(=O)(=O)c2ccc(Cl)cc2)CC1 | 6.41%
Cc1c(Cl)c([N+](=O)[O-])nn1CCCC(=O)Nc1cccc(Cl)c1Cl | -7.86%
Cc1ccc2nc(SCC(=O)NC3CC3)[nH]c2c1 | 14.6%
COc1cccc(Oc2ccc(N)cc2)c1 | 3.51%
CCC(=O)OCCNc1cc(Sc2nccn2C)c2nonc2c1[N+](=O)[O-] | 2.01%
Cc1ccccc1NC(=O)Cc1nc(COC(=O)COc2ccc(C(C)(C)C)cc2)cs1 | 1.62%
CCOC(=O)COc1ccc2c3c(c(=O)oc2c1)CCCC3 | 14.4%
Cc1cccc(OCCNc2nc3c(c(=O)n(C)c(=O)n3C)n2C)c1 | 10.4%
C=CCNc1nc(Cl)nc(Nc2ccc(OC)cc2OC)n1 | 13.8%
CN(C(=O)CN1CCN(c2ccccc2F)CC1)C1CCCc2ccccc21 (stereo not shown) | 11.2%
CCOc1ccccc1NC(=O)Cn1nnc(-c2ccc(OCC)c(OCC)c2)n1 | 23%
NNC(=O)/C(=C\c1ccc(Br)cc1)NC(=O)c1cccs1 | 5.51%
N#Cc1c(N)nc(SCC(=O)NCCc2ccccc2)c(C#N)c1-c1cccs1 | 11%
CCCCc1cc(=O)oc2cc(OS(C)(=O)=O)ccc12 | -1.62%
COC(=O)c1sccc1NC(=O)CN(C)NS(=O)(=O)c1ccc(F)cc1 | 4.39%
CSc1ccc(CN(C)CC(=O)Nc2ccccc2C(=O)NC2CC2)cc1 | 4.85%
COc1ccc(NC(=O)CCCC2CCCCC2)cc1S(=O)(=O)N1CCCCC1 | 15.2%
Cc1cc(C)c(C(N)=O)c(Nc2cccc3ccccc23)n1 | 11.1%
CCOc1ccc(NC(=O)c2c(OC)cccc2OC)cc1 | 4.47%
